In PMC6919601, “Identification of Plasmodium dipeptidyl aminopeptidase allosteric inhibitors by high throughput screening” (PLoS ONE, 2019):
Screen size: about 110,000 compounds; about 230 (0.21%) showed an effect of 50% or more. The list shows a part of the results.

molecular target: DPAP1 (Plasmodium falciparum, UniProt Q8IIJ9); assay: primary screen, percent inhibition; read by cleavage of a fluorogenic dipeptide substrate; higher = more effect of the substance; set-up: species or system P. falciparum D10 trophozoite lysates; single well
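Note: 30 min substrate incubation versus DMSO and 10 µM JCP410 controls.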

Chain of DPAP1 (Q8IIJ9 whole entry, looked up): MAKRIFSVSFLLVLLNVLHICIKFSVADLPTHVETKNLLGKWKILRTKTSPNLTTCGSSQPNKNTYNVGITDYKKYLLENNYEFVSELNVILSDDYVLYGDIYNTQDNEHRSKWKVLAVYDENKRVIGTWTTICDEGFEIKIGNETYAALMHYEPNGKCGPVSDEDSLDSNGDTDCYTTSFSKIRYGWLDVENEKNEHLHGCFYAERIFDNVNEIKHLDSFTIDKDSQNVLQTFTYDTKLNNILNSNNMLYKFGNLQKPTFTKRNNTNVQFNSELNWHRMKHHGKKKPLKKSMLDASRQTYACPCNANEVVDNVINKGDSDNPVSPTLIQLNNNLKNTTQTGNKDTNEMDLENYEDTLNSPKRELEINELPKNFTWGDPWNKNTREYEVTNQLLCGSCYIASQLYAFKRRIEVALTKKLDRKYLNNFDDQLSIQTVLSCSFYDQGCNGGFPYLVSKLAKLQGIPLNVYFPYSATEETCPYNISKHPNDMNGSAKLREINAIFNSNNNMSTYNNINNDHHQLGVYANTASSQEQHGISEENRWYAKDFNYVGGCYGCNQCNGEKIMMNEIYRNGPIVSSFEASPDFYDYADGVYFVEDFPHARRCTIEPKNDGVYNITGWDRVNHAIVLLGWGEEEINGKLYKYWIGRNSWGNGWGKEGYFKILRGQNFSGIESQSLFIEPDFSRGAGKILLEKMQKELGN

Row | SMILES | % Inhibition @ 10 uM [%]
1 | COc1ccc(C(=O)NC2(C(F)(F)F)C(=O)Nc3c2c(=O)[nH]c(=O)n3-c2ccc(Cl)cc2)cc1 (stereo not drawn) | 1.36
2 | Cc1nn2c(=O)/c(=C/c3cn(-c4ccccc4)nc3-c3ccccc3)sc2nc1=O | -5.62
3 | CC(=O)n1nc(C)c2c1CC(C)(C)CC2=O | -4.43
4 | Nc1c(C(=O)Nc2ccccc2C(=O)O)sc2nc3c(cc12)CCCCCC3 | -0.992
5 | CC(Oc1ccc(F)cc1)C(=O)Nc1ccccc1C(F)(F)F (stereo not drawn) | 1.28
6 | COc1ccc(C2CC3=Nc4ccccc4NC(c4cccc(O)c4)C3=C(O)C2)cc1OC (stereo not drawn) | -1.37
7 | O=C(NCCc1c[nH]c2ccccc12)c1ccc2nc(N3CCCCC3)sc2c1 | -2.37
8 | O=C1c2ccccc2CN1CCSC(=S)N1CCCCCC1 | -5.61
9 | Nc1ncc(Br)cc1S(=O)(=O)NCCC(=O)NC1CCCc2ccccc21 (stereo not drawn) | -3.42
10 | CCOC(=O)N1CCN(C(C)CCc2ccccc2)CC1 (stereo not drawn) | -1.82
11 | Cc1cc(NS(=O)(=O)c2ccc(NC(=O)COc3ccc(C(C)C)cc3)cc2)nc(C)n1 | -1.84
12 | CCN(CC)C(=O)CSc1nc(O)cc(=O)n1CC | 1.83
13 | O=C(C1CCCN(c2nc3ccccc3n3cccc23)C1)N1CCN(Cc2ccccc2)CC1 (stereo not drawn) | -0.205
14 | CCC(C(=O)NC(C)c1ccccc1)n1nc(C)n2c(cc3sccc32)c1=O (stereo not drawn) | -3.35
15 | COc1cc(NC(=O)c2cc([N+](=O)[O-])ccc2Cl)c(OC)cc1Cl | -3.79
16 | C#CCOc1ccc2ccccc2c1/C=C1/NC(=O)N(Cc2ccccc2F)C1=O | -1.81
17 | CC1CCN(C(=O)C2c3ccccc3C(=O)N(C)C2c2cccs2)CC1 (stereo not drawn) | -0.228
18 | CCOc1ccc(-c2cc(/N=C(/NCc3ccco3)SC)[nH]n2)cc1 | -0.551
19 | COC(=O)c1cc(S(=O)(=O)NCc2ccc(C)cc2)cn1C | 5.48
20 | Cc1ccc(-c2cc(C(=O)N3CCN(C)CC3)no2)cc1 | 1.7
21 | CN(C)c1ccc(C2C(C(=O)c3cc4ccccc4o3)=C(O)C(=O)N2CCCn2ccnc2)cc1 (stereo not drawn) | 4.25
22 | Cc1ccc(NC(=O)CN2C(=O)S/C(=C\c3cccn3C)C2=O)cc1 | -2.21

Row | SMILES | % Inhibition @ 10 uM [%]
23 | Cc1ccccc1NC(=O)c1ccccc1O | 1.83
24 | Cc1nc(NC(=O)Cn2cnc3c(=O)n(C)c(=O)n(C)c32)ccc1Br | -1.17
25 | N#Cc1ccc(Cn2cnc3ccccc3c2=O)cc1 | 0.528
26 | c1ccc(-c2nccnn2)cc1 | -4.98
27 | COc1ccc(CC/N=C2\SCC(=O)N2Cc2ccccc2)cc1OC | -0.053
28 | Cc1c(C(=O)O)oc2c1-c1nn(Cc3c(F)cccc3Cl)cc1CC2 | 4.79
29 | CCC(C)Cn1c(CO)nc2ccccc21 (stereo not drawn) | -0.512
30 | O=C(Nc1ccccc1)N1CCN(C/C=C/c2ccccc2)CC1 | -0.192
31 | CN(C1CCCCC1)S(=O)(=O)N1CCCC(C(=O)NC2CCCCCC2)C1 (stereo not drawn) | -7.53
32 | COc1cccc(OCCCCCN2CCCCC2)c1 | 2.94
33 | CCOC(=O)c1oc2c(c1C)-c1n[nH]cc1CC2 | 7.81
34 | CCOC(=O)c1c(C)c(C(=O)NCCCc2ccccc2)c(C)n1CC | 0.0579
35 | COc1ccccc1CNC(=O)CCN1C(=O)c2ccccc2Sc2ncccc21 | 1.26
36 | O=C(NCc1ccccc1)c1cc2nc(-c3ccccc3)cc(C(F)(F)F)n2n1 | 1.87
37 | Cc1cccc(-c2cccc(C(=O)O)c2)c1 | -4.26
38 | Cc1nn(C)c(C(=O)N2CCc3ccccc32)c1Cl | 0.385
39 | Cc1ccc(N2CCN(CN3C(=O)S/C(=C/c4ccco4)C3=O)CC2)cc1 | 2.22
40 | CC1CCN(Cc2c(O)nc(O)nc2O)CC1 | -4.93
41 | Cc1cc(=O)oc2cc(OCC(=O)NCCO)ccc12 | -6.17
42 | N#CCC(=O)N1CCN(C(c2ccccc2)c2ccccc2)CC1 | -5.06
43 | CCc1ccc(CNCCSc2nnnn2-c2ccccc2)cc1 | 2.05
44 | Cc1ccc(S(=O)(=O)N(CC(=O)N(C)Cc2ccccc2)c2ccc(F)cc2)cc1 | 9.48

Row | SMILES | % Inhibition @ 10 uM [%]
45 | CN(CCNC(=O)c1cc2c(-c3ccccc3F)nn(C)c2s1)C1CCCCC1 | -3.94
46 | Cc1ccc(N2C(=O)CC(N3CCCCCC3)C2=O)cc1C (stereo not drawn) | -5.67
47 | COc1cccc(N(CC(=O)Nc2ccc(C)cc2)S(=O)(=O)c2ccc(C)cc2)c1 | 1.57
48 | O=C(O)CCCc1cc2c(s1)CCC/C2=N\O | -1.74
49 | Cc1ccc(COC(=O)N[C@@H](CC(C)C)C(=O)NCC#N)c(C)c1 | -1.41
50 | Cc1ccc(S(=O)(=O)NCC(=O)N2CCN(c3ccccn3)CC2)cc1 | 0.64
51 | Cc1cc(C(F)F)n2nc(C(=O)Nc3cccnc3Cl)nc2n1 | -4.62
52 | CCC(=O)/N=C(/Nc1ccc(C)cc1)Nc1nc(C)cc(C)n1 | -7.94
53 | CCCCN1CCCn2c1nc1c2c(=O)n(C)c(=O)n1C | 6.07
54 | O=C1C2C3C=CC(C3)C2C(=O)N1Cc1cccnc1 (stereo not drawn) | 18.5
55 | NC(=O)c1nnc(Cc2ccc(Cl)cc2)o1 | -5.93
56 | O=C(Nc1cc(Cl)cc(Cl)c1)c1ccc([N+](=O)[O-])cc1 | 1.91
57 | CCOc1ccc(N2C(=O)CC(NCc3cccc(Cl)c3)C2=O)cc1 (stereo not drawn) | 7.02
58 | c1ccc(N2CCN(Cc3cccnc3)CC2)nc1 | -4.61
59 | CCCNC(=O)CCc1nnc2ccc(N3CCC(C)CC3)nn12 | -3.73
60 | C=CCn1c(SCCCCCC)nc2c1c(=O)n(C)c(=O)n2C | -0.968
61 | COc1ccc2[nH]c(SCC(=O)Nc3cccc(C)c3)nc2c1 | 1.03
62 | CCCCCC(=O)Nc1ccccc1C(=O)O | -0.25
63 | Cc1nc2nc(NCc3ccccc3F)nn2c(O)c1Cc1ccccc1 | 4.18
64 | Cc1cc(CNC(=O)C2CCCCC2)c2ccccc2n1 | 2.79
65 | CCCCNC(=O)CN(c1ccc(OC)cc1)S(C)(=O)=O | 12.1
66 | CC(=O)c1cccc(NC(=O)c2cnn(C)c2)c1 | 0.206
